In all, about 310,000 compounds went through this assay and about 14,000 (4.5%) showed an effect of 50% or more. Effects have a minus sign here. Some of the results follow.
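Note: peak tail current of the secondary pulse compared with the same well before compound.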

This assay deals with human ether-à-go-go-related gene (hERG) potassium channel (human, UniProt Q12809). Briefly: primary screen, population patch clamp on CHO cells stably expressing hERG.
Chain of human ether-à-go-go-related gene (hERG) potassium channel (Q12809 whole entry, looked up): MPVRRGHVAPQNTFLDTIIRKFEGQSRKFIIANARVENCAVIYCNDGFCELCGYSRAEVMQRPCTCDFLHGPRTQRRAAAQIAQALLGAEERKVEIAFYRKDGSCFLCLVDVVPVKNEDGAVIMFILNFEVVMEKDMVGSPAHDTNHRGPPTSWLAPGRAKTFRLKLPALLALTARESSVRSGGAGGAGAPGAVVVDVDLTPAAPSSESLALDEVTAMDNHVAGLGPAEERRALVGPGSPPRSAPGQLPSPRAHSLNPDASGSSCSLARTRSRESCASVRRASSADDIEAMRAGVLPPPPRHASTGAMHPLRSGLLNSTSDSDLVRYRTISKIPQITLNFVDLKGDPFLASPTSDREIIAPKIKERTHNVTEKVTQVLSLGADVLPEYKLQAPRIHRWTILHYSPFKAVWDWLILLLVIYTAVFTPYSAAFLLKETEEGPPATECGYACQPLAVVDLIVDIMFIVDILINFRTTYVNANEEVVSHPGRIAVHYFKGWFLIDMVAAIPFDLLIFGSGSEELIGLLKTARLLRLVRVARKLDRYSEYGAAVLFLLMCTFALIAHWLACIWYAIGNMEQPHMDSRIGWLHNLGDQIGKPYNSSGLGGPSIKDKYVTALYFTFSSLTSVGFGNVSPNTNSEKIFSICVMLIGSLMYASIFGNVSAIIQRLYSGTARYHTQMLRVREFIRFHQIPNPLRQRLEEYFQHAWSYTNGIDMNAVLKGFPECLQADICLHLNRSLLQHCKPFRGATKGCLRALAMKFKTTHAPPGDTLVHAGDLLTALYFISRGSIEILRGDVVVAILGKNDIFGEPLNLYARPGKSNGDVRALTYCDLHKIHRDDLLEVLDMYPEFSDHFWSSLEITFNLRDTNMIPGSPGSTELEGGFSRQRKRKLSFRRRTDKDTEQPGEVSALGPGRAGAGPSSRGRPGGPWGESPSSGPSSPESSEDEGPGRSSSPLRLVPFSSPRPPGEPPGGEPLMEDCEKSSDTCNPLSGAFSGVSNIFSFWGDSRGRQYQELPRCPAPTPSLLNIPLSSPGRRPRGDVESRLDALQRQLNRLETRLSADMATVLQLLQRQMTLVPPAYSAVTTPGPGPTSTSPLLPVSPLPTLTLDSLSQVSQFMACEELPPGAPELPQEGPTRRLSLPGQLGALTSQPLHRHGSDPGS
`CCC(=O)N1CCc2cc(Br)cc(S(=O)(=O)NCCN3CCCCC3CC)c21` (stereo not drawn): the “hERG current change (%, negative = inhibition) at 10uM” value is -20.4%. With `Cc1ccc(C(=O)c2c[nH]cc2-c2ccccc2)cc1` the figure was -5.45%; with `CCc1nc(N2CCN(C(=S)NCCCOC)CC2)c2c3c(sc2n1)CCCC3`, -9.32%. With `N#C/C(=N\Nc1ccc(F)cc1)C(=N)N1CCCCCC1` the figure was 10%.

With `COc1ccc(N(CC(=O)NCCSC2CCCCC2)S(=O)(=O)c2ccccc2)c(OC)c1`, the “hERG current change (%, negative = inhibition) at 10uM” value is given as 4.16%.

`O=C(CSc1ccccc1)N1CCCC(Nc2ccccc2)C1` (stereo not drawn): the “hERG current change (%, negative = inhibition) at 10uM” value is -0.302%. The value for `COc1cccc(O)c1CN1CCCC(C(=O)c2cccc(C(F)(F)F)c2)C1` (stereo not drawn) was -57.5%; that for `CCOc1ccc(C(=O)NC(C(=O)NCc2ccccc2OC)C(C)C)cc1` (stereo not drawn) was 17.5%. With `c1ccc(Cc2nn[nH]n2)cc1`, the “hERG current change (%, negative = inhibition) at 10uM” value is listed as -8.71%. Turning to `O=C(CCC1CCCC1)NCCS(=O)(=O)N1CCN(c2ccc(F)cc2)CC1`, the “hERG current change (%, negative = inhibition) at 10uM” value is given as -39.2%. The value for `Cc1ccc(CCNC(=O)C2CCN(S(=O)(=O)c3cccc4cccnc34)CC2)cc1` was -18.4%. Turning to `O=C(Nc1cccc(S(=O)(=O)N2CCCC2)c1)c1cccc(OC(F)F)c1`, the “hERG current change (%, negative = inhibition) at 10uM” value was -56.4%. With `O=C(c1ccccc1Br)N1CCc2c([nH]c3ccccc23)C1` the figure was 12.3%; with `Cc1csc(NC(=O)c2ccc(Cl)cc2[N+](=O)[O-])n1`, -64.8%. With `CCN1C(Nc2ccccc2)=NC[C@@H]1C` the figure was 15.2%; with `Cc1ccc(S(=O)(=O)NC(=O)COc2ccccc2C)c(C)c1`, -21.9%; with `COc1ccc(NC(=O)c2ccc3nc[nH]c3c2)c(OC)c1`, -5.16%.

Regarding `COc1ccc(C2=NOC3(CC(=O)N(c4ccc(Cl)cc4)C3=O)C2)c(OC)c1` (stereo not drawn), the “hERG current change (%, negative = inhibition) at 10uM” value is listed as -11.7%. The value for `C/C(=N\NS(=O)(=O)c1c(C)cc(C)cc1C)c1ccncc1` was -0.546%. The value for `CC1CCC(NC(=O)CN2C(=O)NC3(CCCCCC3)C2=O)CC1` (stereo not drawn) was -19.8%.

`Oc1ccc(C2C(c3ccccc3)=NN=C(c3ccc(Cl)cc3)N2O)c(O)c1` (stereo not drawn): the “hERG current change (%, negative = inhibition) at 10uM” value is recorded as -3.57%. The value for `COc1ccc2cc(C3(C)NC(=O)NC3=O)ccc2c1` (stereo not drawn) was -0.239%; that for `CC12CCC3C(CCC4N(CCO)CCC34C)C1CCC2O.Cl` (stereo not drawn) was 18.3%; that for `CN1CC=C(c2c[nH]c3ccccc23)CC1` was -10.4%.

In the case of `OCC1(Cc2ccccc2)CCN(Cc2ccc(C(F)(F)F)cc2)CC1`, the “hERG current change (%, negative = inhibition) at 10uM” value is -72.9%. The value for `O=C(c1cc(Br)c(Br)s1)N1CCOCC1` was 5.13%.

`Cc1ccc(/C=C/C(=O)NC2CCS(=O)(=O)C2)cc1` (stereo not drawn): the “hERG current change (%, negative = inhibition) at 10uM” value worked out at 20.6%. With `Cn1ncc(Br)c1C(=O)Nc1c(F)c(F)cc(F)c1F` the figure was 4.18%; with `Cc1ccc(C(=O)C2(C)C3c4cc(Br)ccc4OC(=O)C32C(=O)c2ccco2)cc1` (stereo not drawn), 15.8%; with `COc1ccccc1N(CC(O)CN1C(=O)NC(C)(C)C1=O)S(=O)(=O)c1ccc(C)cc1` (stereo not drawn), -6.48%. With `CCc1ccc(NC(=O)C2CCCN(S(=O)(=O)c3ccc4c(c3)CCCN4C(C)=O)C2)cc1` (stereo not drawn) the figure was -2.68%. The value for `COCCNC(=O)Cn1nc(-c2ccccc2)c2ccccc2c1=O` was 0.883%.

For the molecule `CC1CCc2nc(/C(C#N)=C/c3ccncc3)sc2C1` (stereo not drawn), the “hERG current change (%, negative = inhibition) at 10uM” value is given as 6.83%. With `CC1=NN(c2ccc(Cl)cc2)C(=O)C1C(c1cccc(O)c1)c1c(C)[nH]n(-c2ccc(Cl)cc2)c1=O` (stereo not drawn) the figure was 6.29%; with `COc1ccc2c(c1)NP(=S)(Oc1ccccc1)N2` (stereo not drawn), 9.63%; with `COC(=O)c1ccc(C2C(Oc3ccccc3)C(=O)N2CCc2ccc(OC)c(OC)c2)cc1` (stereo not drawn), 13.6%. With `CCOc1ccccc1OC(=O)c1cc2ccccc2oc1=O` the figure was 2.82%; with `CCOC(=O)c1ccc(S(=O)(=O)Nc2cc(C(=O)O)ccc2Cl)cc1`, 2.13%; with `COc1ccc(NC(=O)/C=C/c2ccc3c(c2)OCO3)cc1`, 5.2%.

As for `Cc1nn2c(nc1=O)NNC2(C)C(C)(C)C` (stereo not drawn), the “hERG current change (%, negative = inhibition) at 10uM” value came to 8.08%.

Turning to `COc1ccc(-c2[nH]ncc2CN2CCC(N3CCSCC3)CC2)cc1F`, the “hERG current change (%, negative = inhibition) at 10uM” value is -22.5%. The value for `COC(=O)[C@@H]1C2CCC(C(=O)Nc3ccccc3)(CC2)[C@@H]1C(=O)OC` was 19%.

On to `NC(=O)c1ccsc1NC(=O)CS(=O)(=O)c1ccccc1`, for which the “hERG current change (%, negative = inhibition) at 10uM” value was -8.27%.

Turning to `CCOc1ccc(OCC)c(NC(=O)CN(C)S(=O)(=O)c2cnc[nH]2)c1`, the “hERG current change (%, negative = inhibition) at 10uM” value was 6.12%. As to `COc1ccc(CCC(C)NCC2CCCCC2)cc1` (stereo not drawn), the “hERG current change (%, negative = inhibition) at 10uM” value was -14.9%. As for `CSc1nnc(C)c(/C=C/NOCc2ccc(Cl)cc2)n1`, the “hERG current change (%, negative = inhibition) at 10uM” value is -8.79%.

Turning to `Cc1ccc2c(c1)C1CN(C)CCC1N2S(=O)(=O)c1cccc(F)c1` (stereo not drawn), the “hERG current change (%, negative = inhibition) at 10uM” value was -11.5%. The value for `O=C(COc1nsnc1N1CCOCC1)N/N=C/c1ccccc1O` was -17.8%.

In the case of `CCOC(=O)c1c(NC(=O)CSc2nnc(CN3CCOCC3)n2C)sc2c1CCCC2`, the “hERG current change (%, negative = inhibition) at 10uM” value is reported as -30%. Consider `CCC(=O)c1ccc(N2CCN(C(=O)c3ccc(F)cc3)CC2)c(F)c1`, for which the “hERG current change (%, negative = inhibition) at 10uM” value is reported as -60%. The value for `O=C1OC(Nc2nc3ccccc3s2)c2ccccc21` (stereo not drawn) was 2.06%; that for `COc1ccc(NC(=O)CC2C(=O)N(c3ccc(Cl)cc3)C(=S)N2NC(=O)c2cccc(F)c2)cc1` (stereo not drawn) was 20.7%; that for `COc1ccc(S(=O)(=O)N2CCOCC2)cc1NC(=O)Cc1ccc(Cl)c(Cl)c1` was 3.6%. The value for `COc1ccc(N2CCN(C(=O)c3cn(C)c(=O)c4c3c3ccccc3n4C)CC2)cc1` was -14.7%; that for `Cc1ccc(N(C(=O)c2sc(C)nc2C)C(C(=O)NC(C)(C)C)c2ccncc2)cc1` (stereo not drawn) was 25.8%; that for `Cc1nnc(SCC(=O)N(C)C2CCS(=O)(=O)C2)n1Cc1ccccc1` (stereo not drawn) was 0.142%. Consider `CCOC(=O)Cc1c(Sc2ccccc2)c2ccccc2n1C`, for which the “hERG current change (%, negative = inhibition) at 10uM” value stood at 4.2%. The value for `CC[C@@]12C(=O)N(c3cccc(Cl)c3)C(=O)N1[C@H](c1cccc(C)c1)[C@@H]1C(=O)N(Cc3ccccc3)C(=O)[C@@H]12` was 5.58%; that for `COc1cccc(-n2nnc3c(=O)n(CC(=O)N4CCC(C)CC4)cnc32)c1` was -14.8%; that for `COc1ccc(OC)c(NC(=O)CSc2nc3ccccc3c(=O)n2CCNC(C)=O)c1` was -2.83%.

On to `O=S(=O)(Nc1cccc(-n2cnnn2)c1)c1cc(Cl)ccc1Cl`, for which the “hERG current change (%, negative = inhibition) at 10uM” value worked out at 1.02%. The value for `Cc1ccccc1/C=C/c1nc2ccccc2c(=O)[nH]1` was 16.5%; that for `CCCCCCCCNc1nc(Cl)nc(NCc2ccco2)n1` was 10.9%; that for `CCn1c(=S)sc2c(=O)n(CC(=O)Nc3cccc(OC)c3)c(C)nc21` was 0.0573%. For `CC(C)CNC(=S)N1CCC(Cc2ccccc2)CC1`, the “hERG current change (%, negative = inhibition) at 10uM” value is -40.1%. With `COc1ccc(-c2csc3nc(C)nc(N4CCN(c5ccc(C(C)=O)cc5)CC4)c23)cc1OC` the figure was -20.6%; with `O=C(CN1C(=O)NC2(CCCCCC2)C1=O)c1ccc(Cl)cc1`, -3.05%.

For `CC(=O)Nc1nc(C)c(-c2csc(Nc3cccc([N+](=O)[O-])c3)n2)s1`, the “hERG current change (%, negative = inhibition) at 10uM” value is on record as -10.9%. The value for `CN1CCN(C(=O)c2ccc(CN(c3ccccc3)S(=O)(=O)c3ccccc3)cc2)CC1` was -38%; that for `COc1ccc(-c2ccccc2)cc1NCc1ccc(OC)c(OC)c1` was 9.42%.

`O=C(NNC(=S)NC(=O)c1ccccc1[N+](=O)[O-])c1ccccc1`: the “hERG current change (%, negative = inhibition) at 10uM” value is given as 11.1%.

On to `CCOC(=O)Cc1csc(SCC(=O)Nc2sc3c(c2C(N)=O)CCC3)n1`, for which the “hERG current change (%, negative = inhibition) at 10uM” value is given as 8.17%.

Take `CCC1CCCCN1C(=O)c1c[nH]c2ccc(S(=O)(=O)N(C)c3ccc(Cl)cc3)cc2c1=O` (stereo not drawn): the “hERG current change (%, negative = inhibition) at 10uM” value was -33.8%. With `CC(=O)N(C(C)=O)c1c(C#N)c(C)n(-c2ccccc2)c1C(=O)c1ccccc1` the figure was -4.71%; with `COC(=O)c1[nH]c(C)c(/C(O)=C2\C(=O)C(=O)N(CCN(C)C)C2c2cc(OC)ccc2OC)c1C` (stereo not drawn), 13.6%. With `Cc1ccc(NC2=CC(=O)CC(c3ccco3)C2)c(N)c1` (stereo not drawn) the figure was 7.89%.

Consider `O=C(O)c1ccc2c(c1)C(=O)N(c1cccc(S(=O)(=O)Nc3cccc(C(F)(F)F)c3)c1)C2=O`, for which the “hERG current change (%, negative = inhibition) at 10uM” value stood at 21.1%. With `COc1ccc(Cl)cc1S(=O)(=O)n1ccnc1` the figure was 3.07%; with `COc1cc(-n2c(=O)c3ccccc3n(CC(=O)c3ccc(Br)cc3)c2=O)cc(OC)c1OC`, 0.938%. With `Cc1cc(C)nc(N/N=C/c2ccccc2Cl)n1` the figure was 2.48%; with `CCCC(C)C(=O)Nc1nc(C)c(-c2csc(Nc3cc(Cl)ccc3C)n2)s1` (stereo not drawn), 0.0165%; with `COc1ccccc1N(Cc1cc(=O)[nH]c2ccccc12)C(=O)C(C)C`, -3.83%. With `Cc1ccc(C)c(-c2cc(C(=O)N/N=C/c3cccnc3)c3ccccc3n2)c1` the figure was -40.2%; with `O=C(Nc1ccccc1)c1cnc[nH]1`, 12.4%; with `Cc1ccc(-c2cn(-c3ccccc3)c3[n+]2CCCS3)cc1.[Br-]`, -29.1%. With `CCOC(=O)c1sc(NC(=O)Cc2ccccc2OC)nc1C`, the “hERG current change (%, negative = inhibition) at 10uM” value is given as 3.57%. With `O=C(NC(=S)Nc1ccc(Oc2ccccc2)cc1)c1ccc(Cl)cc1` the figure was -5.87%.

Source of the values: article PMC4336329 (PLoS ONE, 2015).
